In PMC5892938:
This is one part of the list. At the low end of the ranking, values are background and their order means little.

Target: GST-SBP-SLBP (stem-loop binding protein) (UniProt Q14493)
Assay: targeted RNA Bind-n-Seq;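 also: DESeq read counts versus GST-SBP nonspecific binding control pulldown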
Conditions: RBNS binding buffer: 25 mM Tris pH 7.5, 150 mM KCl, 3 mM MgCl2, 0.1% Tween, 0.5 mg/mL BSA, 1 mM DTT; 27 nM protein, 750 pM RNA pool; temperature not stated; high values mean tight binding

Row | Sequence | binding signal (log2 fold change)
1 | GGUCACGUCUCAAUCAACUCUAAAGAGGGGGGGAAAACCCCUUUGCCCUCGUAAUCAACAGCUCGCAGUCAAG | 0.191
2 | GGUCACGUCUCAAUCAACUCUUUCUCAGGAGUUUACUCCUGCUUACUCAACAGCUCGCAGUCAAG | 0.0931
3 | GGUCACGUCUCAAUCAACUCUAUUUCAGGAGUUUCCUCCUGCAUACUCAACAGCUCGCAGUCAAG | -0.0899
4 | GGUCACGUCUCAAUCAACUCUUUCCCCAGGGAAAUCCCUGGUAAUUUCAACAGCUCGCAGUCAAG | -0.172
5 | GGUCACGUCUCAAUCAACUCAACUUCAGGAGUUUGCUCCUGUAUUUUCAACAGCUCGCAGUCAAG | -0.0305
6 | GGUCACGUCUCAAUCAACUCUUCCUCCAGGGAAAUCCCUGGUAAUGUCAACAGCUCGCAGUCAAG | 0.0479
7 | GGUCACGUCUCAAUCAACUCUAUUCCAGGAGUUUACUCCUGUAAAUUCAACAGCUCGCAGUCAAG | -0.128
8 | GGUCACGUCUCAAUCAACUCAUACGAGGGGGGGAAAACCCCUUUACCCUCUUCAUCAACAGCUCGCAGUCAAG | -0.118
9 | GGUCACGUCUCAAUCAACUCUACUCCAGGAGUUUCCUCCUGUAAAUUCAACAGCUCGCAGUCAAG | 0.0186
10 | GGUCACGUCUCAAUCAACUCCACAGAGGGGGGGAAAACCCCUUUACCCUCAAAUUCAACAGCUCGCAGUCAAG | -0.399
11 | GGUCACGUCUCAAUCAACUCUAUCUCAGGAGUUUACUCCUGCUAUUUCAACAGCUCGCAGUCAAG | -0.0969
12 | GGUCACGUCUCAAUCAACUCAAUCCCCAGGGAAAGCCCUGGCAAACUCAACAGCUCGCAGUCAAG | 0.159
13 | GGUCACGUCUCAAUCAACUCCCCGGAGGGGGGGAAAACCCCUUUACCCUCACUAUCAACAGCUCGCAGUCAAG | -0.282
14 | GGUCACGUCUCAAUCAACUCUUCGUCAGGAGUUUCCUCCUGCUAUUUCAACAGCUCGCAGUCAAG | -0.0998
15 | GGUCACGUCUCAAUCAACUCAAUUUCAGGAGUUUACUCCUGCAUUCUCAACAGCUCGCAGUCAAG | -0.0242
16 | GGUCACGUCUCAAUCAACUCUUUCCCCAGGGAAACCCCUGGUUUAUUCAACAGCUCGCAGUCAAG | -0.00629
17 | GGUCACGUCUCAAUCAACUCCACGGAGGGGGGGAAAACCCCUUUACCCUCAUAUUCAACAGCUCGCAGUCAAG | -0.00909
18 | GGUCACGUCUCAAUCAACUCAUUCCCCAGGGAAAUCCCUGGUUUUCUCAACAGCUCGCAGUCAAG | 0.0115
19 | GGUCACGUCUCAAUCAACUCUUCUCCCAGGGAAAUCCCUGGCUAUCUCAACAGCUCGCAGUCAAG | 0.0869
20 | GGUCACGUCUCAAUCAACUCUUCCCCAGGAGUUUCCUCCUGCUAAUUCAACAGCUCGCAGUCAAG | 0.09
21 | GGUCACGUCUCAAUCAACUCUAUCGCAGGAGUUUCCUCCUGGUUUUUCAACAGCUCGCAGUCAAG | -0.0427
22 | GGUCACGUCUCAAUCAACUCAUUUUCAGGAGUUUGCUCCUGUAUACUCAACAGCUCGCAGUCAAG | 0.0737
23 | GGUCACGUCUCAAUCAACUCUUCUCCAGGAGUUUUCUCCUGCAAAUUCAACAGCUCGCAGUCAAG | -0.0221
24 | GGUCACGUCUCAAUCAACUCAAUCCCAGGAGUUUCCUCCUGCUAUUUCAACAGCUCGCAGUCAAG | 0.166

Row | Sequence | binding signal (log2 fold change)
25 | GGUCACGUCUCAAUCAACUCAUUUUCCAGGGAAACCCCUGGUAUACUCAACAGCUCGCAGUCAAG | 0.152
26 | GGUCACGUCUCAAUCAACUCCCAAGAGGGGGGGAAAACCCCUUUGCCCUCAAAAUCAACAGCUCGCAGUCAAG | -0.299
27 | GGUCACGUCUCAAUCAACUCUUUUCCCAGGGAAACCCCUGGUAUACUCAACAGCUCGCAGUCAAG | 0.26
28 | GGUCACGUCUCAAUCAACUCAAGUCCAGGAGUUUACUCCUGUUUAUUCAACAGCUCGCAGUCAAG | -0.0207
29 | GGUCACGUCUCAAUCAACUCAACGGAGGGGGGGAAAACCCCUUUACCCUCACAUUCAACAGCUCGCAGUCAAG | -0.437
30 | GGUCACGUCUCAAUCAACUCAAUCCCAGGAGUUUCCUCCUGUAUAGUCAACAGCUCGCAGUCAAG | 0.177
31 | GGUCACGUCUCAAUCAACUCCCCAGAGGGGGGGAAAACCCCUUUACCCUCCACAUCAACAGCUCGCAGUCAAG | 0.235
32 | GGUCACGUCUCAAUCAACUCUUCCCCCAGGGAAAGCCCUGGUUAUGUCAACAGCUCGCAGUCAAG | -0.0247
33 | GGUCACGUCUCAAUCAACUCUCAAGAGGGGGGGAAAACCCCUUUACCCUCGAAAUCAACAGCUCGCAGUCAAG | 0.0214
34 | GGUCACGUCUCAAUCAACUCACAGGAGGGGGGGAAAACCCCUUUACCCUCACAAUCAACAGCUCGCAGUCAAG | -0.388
35 | GGUCACGUCUCAAUCAACUCCUUCGAGGGGGGGAAAACCCCUUUACCCUCUUAAUCAACAGCUCGCAGUCAAG | 0.305
36 | GGUCACGUCUCAAUCAACUCCCCAGAGGGGGGGAAAACCCCUUUGCCCUCAUUCUCAACAGCUCGCAGUCAAG | -0.244
37 | GGUCACGUCUCAAUCAACUCUAUCUCAGGAGUUUACUCCUGCUUACUCAACAGCUCGCAGUCAAG | -0.00203
38 | GGUCACGUCUCAAUCAACUCUACUUCAGGAGUUUACUCCUGCAAACUCAACAGCUCGCAGUCAAG | -0.0527
39 | GGUCACGUCUCAAUCAACUCACACGAGGGGGGGAAAACCCCUUUACCCUCAAACUCAACAGCUCGCAGUCAAG | 0.265
40 | GGUCACGUCUCAAUCAACUCAUCUUCCAGGGAAAUCCCUGGCUAACUCAACAGCUCGCAGUCAAG | -0.0405
41 | GGUCACGUCUCAAUCAACUCUUCCCCCAGGGAAAGCCCUGGCUAUUUCAACAGCUCGCAGUCAAG | -0.00689
42 | GGUCACGUCUCAAUCAACUCUUCCCCCAGGGAAACCCCUGGCAUUCUCAACAGCUCGCAGUCAAG | -0.124
43 | GGUCACGUCUCAAUCAACUCCAAAGAGGGGGGGAAAACCCCUUUACCCUCAGAAUCAACAGCUCGCAGUCAAG | -0.658
44 | GGUCACGUCUCAAUCAACUCACAAGAGGGGGGGAAAACCCCUUUACCCUCCGUUUCAACAGCUCGCAGUCAAG | -0.367
45 | GGUCACGUCUCAAUCAACUCUUCCCCCAGGGAAAGCCCUGGCUAAUUCAACAGCUCGCAGUCAAG | 0.168
46 | GGUCACGUCUCAAUCAACUCAUUCGAGGGGGGGAAAACCCCUUUACCCUCACUAUCAACAGCUCGCAGUCAAG | -0.285
47 | GGUCACGUCUCAAUCAACUCAUAAGAGGGGGGGAAAACCCCUUUACCCUCCGUAUCAACAGCUCGCAGUCAAG | -0.537
